Data: the supplement of paper PMC10369915
The other results are listed elsewhere or left out. Cut-off read from the data, not from the text of the source: active = 3.2 or more and inactive = the rest. Only a few entries rise above the background.

The binders below were run against SHP2 C-SH2 domain E139D (assay: enrichment score (SH2-bound / input frequency) (ratio); bacterial display of known human phosphotyrosine sites (pTyr-Var adds point mutants) read by sequencing; higher = stronger binding; tyrosines were phosphorylated by kinases first). Conditions: peptide library: pTyr-Var.
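Note: displayed peptides selected on beads carrying the immobilized SH2 domain, with library peptides lacking any tyrosine serving as negative controls.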

| Binder | enrichment score |
| --- | --- |
| ISIFHYAKGQP [MPZ_Y82] | inactive: 2.1 |
| FYVVRYCWLRR [MPZ_Y181] | inactive: 0.306 |
| LLLLFCVVRYC [MPZ_Y177_Y177C] | inactive: 1.8 |
| TGSFTYEAVEL [MTMR14_Y462] | inactive: 0.963 |
| GELQGYDIMEP [MSH2_Y863_S860L] | inactive: 0.594 |
| KMGNIYRTEYG [MRPL3_Y265] | inactive: 0.832 |
| SKLTIYDARPS [MTM1_Y277] | inactive: 0.846 |
| TTPGPYRSIYF [MPG_Y71] | inactive: 0.81 |
| TTPGPHRSIYF [MPG_Y71_Y71H] | inactive: 0.675 |
| QTPVLYAMLFH [MPZ_Y220_D224Y_YF] | inactive: 0.558 |
| TGSFTCEAVEL [MTMR14_Y462_Y462C] | inactive: 0.646 |
| KTGNIYRTEFG [MRPL3_Y265_M261T_YF] | inactive: 0.766 |
| AEDKPYAELWM [MPI_Y46] | inactive: 1.16 |
| KDDEKYLDVSR [MTM1_Y260_I264S] | inactive: 0.55 |
| TNFPLYLRSLE [MTM1_Y71_R69P_YF] | inactive: 0.854 |
| LWPIWYRCRRP [MRGPRX1_Y130_H133R] | inactive: 0.202 |
| TNFSLYLRSLE [MTM1_Y71_R69S_YF] | inactive: 0.988 |
| DDFNLYINVKL [MTHFD1_Y52_S49F] | inactive: 1.33 |

These binders were tested against SHP2 C-SH2 domain wild-type in the same assay as above. Conditions: peptide library: pTyr-Var.

| Binder | enrichment score |
| --- | --- |
| ISIFHYAKGQP [MPZ_Y82] | inactive: 1.49 |
| FYVVRYCWLRR [MPZ_Y181] | inactive: 0.191 |
| LLLLFCVVRYC [MPZ_Y177_Y177C] | inactive: 1.99 |
| TGSFTYEAVEL [MTMR14_Y462] | inactive: 0.666 |
| GELQGYDIMEP [MSH2_Y863_S860L] | inactive: 0.663 |
| KMGNIYRTEYG [MRPL3_Y265] | inactive: 0.721 |
| SKLTIYDARPS [MTM1_Y277] | inactive: 0.915 |
| TTPGPYRSIYF [MPG_Y71] | inactive: 2.24 |
| TTPGPHRSIYF [MPG_Y71_Y71H] | inactive: 0.673 |
| QTPVLYAMLFH [MPZ_Y220_D224Y_YF] | inactive: 0.628 |
| TGSFTCEAVEL [MTMR14_Y462_Y462C] | inactive: 0.947 |
| KTGNIYRTEFG [MRPL3_Y265_M261T_YF] | inactive: 0.637 |
| AEDKPYAELWM [MPI_Y46] | inactive: 1.33 |
| KDDEKYLDVSR [MTM1_Y260_I264S] | inactive: 0.567 |
| TNFPLYLRSLE [MTM1_Y71_R69P_YF] | inactive: 0.774 |
| LWPIWYRCRRP [MRGPRX1_Y130_H133R] | inactive: 0.195 |
| TNFSLYLRSLE [MTM1_Y71_R69S_YF] | inactive: 1.19 |
| DDFNLYINVKL [MTHFD1_Y52_S49F] | inactive: 2.26 |

The binders below were run against SHP2 N-SH2 domain L43F in the same assay as above. Conditions: peptide library: pTyr-Var.

| Binder | enrichment score |
| --- | --- |
| ISIFHYAKGQP [MPZ_Y82] | inactive: 1.66 |
| FYVVRYCWLRR [MPZ_Y181] | inactive: 0.232 |
| LLLLFCVVRYC [MPZ_Y177_Y177C] | inactive: 1.74 |
| TGSFTYEAVEL [MTMR14_Y462] | inactive: 0.9 |
| GELQGYDIMEP [MSH2_Y863_S860L] | inactive: 0.626 |
| KMGNIYRTEYG [MRPL3_Y265] | inactive: 0.922 |
| SKLTIYDARPS [MTM1_Y277] | inactive: 0.82 |
| TTPGPYRSIYF [MPG_Y71] | active: 3.52 |
| TTPGPHRSIYF [MPG_Y71_Y71H] | inactive: 0.682 |
| QTPVLYAMLFH [MPZ_Y220_D224Y_YF] | inactive: 0.567 |
| TGSFTCEAVEL [MTMR14_Y462_Y462C] | inactive: 0.766 |
| KTGNIYRTEFG [MRPL3_Y265_M261T_YF] | inactive: 0.686 |
| AEDKPYAELWM [MPI_Y46] | inactive: 1.23 |
| KDDEKYLDVSR [MTM1_Y260_I264S] | inactive: 0.627 |
| TNFPLYLRSLE [MTM1_Y71_R69P_YF] | inactive: 0.884 |
| LWPIWYRCRRP [MRGPRX1_Y130_H133R] | inactive: 0.304 |
| TNFSLYLRSLE [MTM1_Y71_R69S_YF] | inactive: 0.973 |
| DDFNLYINVKL [MTHFD1_Y52_S49F] | inactive: 1.86 |

What follows are binders tested against SHP2 N-SH2 domain T42A in the same assay as above. Conditions: peptide library: pTyr-Var.

| Binder | enrichment score |
| --- | --- |
| ISIFHYAKGQP [MPZ_Y82] | inactive: 1.67 |
| FYVVRYCWLRR [MPZ_Y181] | inactive: 0.349 |
| LLLLFCVVRYC [MPZ_Y177_Y177C] | inactive: 1.62 |
| TGSFTYEAVEL [MTMR14_Y462] | inactive: 0.993 |
| GELQGYDIMEP [MSH2_Y863_S860L] | inactive: 0.421 |
| KMGNIYRTEYG [MRPL3_Y265] | inactive: 0.73 |
| SKLTIYDARPS [MTM1_Y277] | inactive: 0.689 |
| TTPGPYRSIYF [MPG_Y71] | active: 3.35 |
| TTPGPHRSIYF [MPG_Y71_Y71H] | inactive: 0.525 |
| QTPVLYAMLFH [MPZ_Y220_D224Y_YF] | inactive: 0.745 |
| TGSFTCEAVEL [MTMR14_Y462_Y462C] | inactive: 0.632 |
| KTGNIYRTEFG [MRPL3_Y265_M261T_YF] | inactive: 0.738 |
| AEDKPYAELWM [MPI_Y46] | active: 3.75 |
| KDDEKYLDVSR [MTM1_Y260_I264S] | inactive: 0.495 |
| TNFPLYLRSLE [MTM1_Y71_R69P_YF] | inactive: 0.86 |
| LWPIWYRCRRP [MRGPRX1_Y130_H133R] | inactive: 0.263 |
| TNFSLYLRSLE [MTM1_Y71_R69S_YF] | inactive: 1 |
| DDFNLYINVKL [MTHFD1_Y52_S49F] | inactive: 1.34 |

The binders below were run against SHP2 N-SH2 domain T52S in the same assay as above. Conditions: peptide library: pTyr-Var.

| Binder | enrichment score |
| --- | --- |
| ISIFHYAKGQP [MPZ_Y82] | inactive: 2.05 |
| FYVVRYCWLRR [MPZ_Y181] | inactive: 0.205 |
| LLLLFCVVRYC [MPZ_Y177_Y177C] | inactive: 1.73 |
| TGSFTYEAVEL [MTMR14_Y462] | inactive: 0.843 |
| GELQGYDIMEP [MSH2_Y863_S860L] | inactive: 0.718 |
| KMGNIYRTEYG [MRPL3_Y265] | inactive: 0.788 |
| SKLTIYDARPS [MTM1_Y277] | inactive: 0.819 |
| TTPGPYRSIYF [MPG_Y71] | active: 4.4 |
| TTPGPHRSIYF [MPG_Y71_Y71H] | inactive: 0.814 |
| QTPVLYAMLFH [MPZ_Y220_D224Y_YF] | inactive: 0.72 |
| TGSFTCEAVEL [MTMR14_Y462_Y462C] | inactive: 0.686 |
| KTGNIYRTEFG [MRPL3_Y265_M261T_YF] | inactive: 0.729 |
| AEDKPYAELWM [MPI_Y46] | inactive: 1.14 |
| KDDEKYLDVSR [MTM1_Y260_I264S] | inactive: 0.629 |
| TNFPLYLRSLE [MTM1_Y71_R69P_YF] | inactive: 0.923 |
| LWPIWYRCRRP [MRGPRX1_Y130_H133R] | inactive: 0.168 |
| TNFSLYLRSLE [MTM1_Y71_R69S_YF] | inactive: 1.22 |
| DDFNLYINVKL [MTHFD1_Y52_S49F] | inactive: 1.03 |

The binders below were run against SHP2 N-SH2 domain wild-type in the same assay as above. Conditions: peptide library: pTyr-Var.

| Binder | enrichment score |
| --- | --- |
| ISIFHYAKGQP [MPZ_Y82] | inactive: 1.82 |
| FYVVRYCWLRR [MPZ_Y181] | inactive: 0.172 |
| LLLLFCVVRYC [MPZ_Y177_Y177C] | inactive: 1.69 |
| TGSFTYEAVEL [MTMR14_Y462] | inactive: 1.04 |
| GELQGYDIMEP [MSH2_Y863_S860L] | inactive: 0.621 |
| KMGNIYRTEYG [MRPL3_Y265] | inactive: 0.721 |
| SKLTIYDARPS [MTM1_Y277] | inactive: 0.917 |
| TTPGPYRSIYF [MPG_Y71] | inactive: 1.04 |
| TTPGPHRSIYF [MPG_Y71_Y71H] | inactive: 0.87 |
| QTPVLYAMLFH [MPZ_Y220_D224Y_YF] | inactive: 0.522 |
| TGSFTCEAVEL [MTMR14_Y462_Y462C] | inactive: 1.12 |
| KTGNIYRTEFG [MRPL3_Y265_M261T_YF] | inactive: 0.695 |
| AEDKPYAELWM [MPI_Y46] | inactive: 1.02 |
| KDDEKYLDVSR [MTM1_Y260_I264S] | inactive: 0.674 |
| TNFPLYLRSLE [MTM1_Y71_R69P_YF] | inactive: 0.895 |
| LWPIWYRCRRP [MRGPRX1_Y130_H133R] | inactive: 0.261 |
| TNFSLYLRSLE [MTM1_Y71_R69S_YF] | inactive: 1.36 |
| DDFNLYINVKL [MTHFD1_Y52_S49F] | inactive: 2.86 |
